Measurements reported in PubChem BioAssay AID686978 (National Center for Advancing Translational Sciences (NCATS), 2013).
Screen size: about 420,000 compounds; about 64,000 (15%) were called active. The inconclusive results got no clear call from the source; some entries with a clear call stand among them for comparison. The call rests on the fitted dose curve; in most records, active means well fitted inhibition curve with a large enough effect; inconclusive means small, poorly fitted or top-dose-only effect; inactive means flat fitted curve, though single readings scatter. No potency is given beside an inconclusive call; the fits are too rough.

Assay: qHTS for Inhibitors of human tyrosyl-DNA phosphodiesterase 1 (TDP1): qHTS in cells in absence of CPT; further: nearly all actives have a fitted effect of over 55% in size
Details: DT40 Tdp1-/- hTDP1 cells, no CPT, ATP luminescence, 48 h; activity change, negative = growth inhibition: at 46.2 µM (top of the series) unless noted
Method in brief: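 Chicken DT40 Tdp1-/- cells stably complemented with human TDP1 were seeded at 400 cells/well with DMSO in place of 20 nM camptothecin. After compound pinning, cells grew at least 48 hr at 37 °C; viability read by CellTiter-Glo luminescence.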
On the % scale 0 is the no-effect control and ±100 the full control effect; potency means the concentration at half of the fitted maximal effect; tags describe the fitted curve by direction and shape.

Row | Structure (SMILES) | Potency | activity change, negative = growth inhibition
1 | CCCCCOP(=O)(OCCCCC)C1(NS(=O)(=O)c2ccccc2)C=CC(=O)c2ccccc21 (stereo not given) | inconclusive [inhibitor, single point] | –
2 | CCN1CCN(c2ncnc3sc(C)c(-c4ccccc4)c23)CC1 | inconclusive [inhibitor, partial curve, poor fit] | –
3 | Cc1ccc(C)c(N(C)S(=O)(=O)c2cccc3nsnc23)c1 | inconclusive [inhibitor, partial curve, poor fit] | –
4 | O=C(CCc1nc(-c2ccccc2)no1)N1CCCC1 | – | inactive: -15.8%
5 | COc1cccc(OCC(Cn2c(C)nc3ccccc32)OC(C)=O)c1 (stereo not given) | active: 8.2 µM | –
6 | NS(=O)(=O)c1ccc(NC(=S)N2CCN(c3ccccc3Cl)CC2)cc1 | inconclusive [inhibitor, single point] | –
7 | COC(=O)/C(=C(O)\C=C\c1ccccc1[N+](=O)[O-])c1nc2ccccc2[nH]1 | active: 14.6 µM | –
8 | CC(C)=CCCC(C)CN1CCC(N2CCC(C(=O)N3CCCC3)CC2)CC1 (stereo not given) | active: 16.4 µM | –
9 | CCc1nc2ccc(C(=O)NCCc3ccccn3)cn2c1N(C)CCC(C)C | active: 25.9 µM | –
10 | COc1ccc(CN(C)C[C@@H]2OCc3cnnn3CCCC(=O)N([C@@H](C)CO)C[C@H]2C)cc1 | – | inactive: -27.8%
11 | CCN(CC)C(=O)CN1C(=O)C2(OCC(C)(C)CO2)c2ccccc21 | – | inactive: -4.38%
12 | CCC(=O)Oc1ccc2oc(=O)cc(C)c2c1 | – | inactive: 2.31%
13 | COc1cc(Cl)c(C)cc1NC(=O)c1cc2ccc3cccnc3c2[nH]1 | inconclusive [inhibitor, single point] | –
14 | CCCCC(c1nnnn1C1CCCC1)N1CCN(C2CCCCC2)CC1 (stereo not given) | inconclusive [inhibitor, partial curve] | –
15 | COc1ccc(S(=O)(=O)n2nc(-n3c(C)ccc3C)c3c(F)cccc32)cc1OC | inconclusive [inhibitor, single point] | –
16 | COc1ccc(Cl)cc1NC(=O)CN(C)C(=O)c1sccc1-c1ccccc1 | inconclusive [inhibitor, single point] | –
17 | Cc1cc(Nc2ccccc2)nc(N2CCN(C(=O)c3ccc4c(c3)OCO4)CC2)n1 | inconclusive [inhibitor, single point] | –
18 | CC(=O)NCCC(=O)Nc1nc(-c2ccc3c(c2)OCCO3)cs1 | – | inactive: -6.56%
19 | CC1(C)CC2(CCCN(CC(O)(c3ccccc3)c3ccccc3)C2)CCO1 (stereo not given) | inconclusive [inhibitor, single point] | –
20 | Cc1ccc(NC(=O)/C=C/C(=O)O)c(NC(=O)c2ccccc2)c1 | – | inactive: 0.633%
21 | CCN(CC)CC#CCC(O)(c1ccccc1)c1ccccc1 | inconclusive [inhibitor, partial curve] | –
22 | CCCCNC(=S)NC(=O)c1ccc([N+](=O)[O-])cc1 | inconclusive [inhibitor, single point] | –
23 | O=C(O)C1C(c2ccccc2)c2ccccc2C(O)C1CO (stereo not given) | inconclusive [inhibitor, full curve, poor fit] | –

Row | Structure (SMILES) | Potency | activity change, negative = growth inhibition
24 | Cc1cccnc1NC(=O)COc1ccc2oc3c(c2c1)CCCC3 | inconclusive [inhibitor, single point] | –
25 | Clc1ccc(CNCCCSc2ncccn2)cc1Cl | inconclusive [inhibitor, single point] | –
26 | COc1cccc(/C=N/NC(=O)CCC(=O)Nc2ccc(Br)cc2)c1 | – | inactive: -8%
27 | Cc1nc(N2CCCC2)c2c(C(=O)Nc3cccc(Cl)c3C)c(C)oc2n1 | inconclusive [inhibitor, single point] | –
28 | Cc1ccc(S(=O)(=O)Nc2ccc3c(c2)n(C)c(=O)n3C)cc1 | – | inconclusive: -35.1% [inhibitor]
29 | Clc1cccc(/C=N/N2CCN(Cc3ccccc3)CC2)c1 | – | inactive: -16.5%
30 | CC[C@@]12C(=O)N(c3ccc(C)cc3)C(=O)N1[C@H](c1cccc(C)c1)[C@@H]1C(=O)N(Cc3ccccc3)C(=O)[C@@H]12 | inconclusive [inhibitor, single point] | –
31 | Cc1ccc(CC(=O)Nc2nc3ccccc3s2)cc1 | inconclusive [inhibitor, partial curve] | –
32 | COc1cc2[nH]c(=O)n(Cc3ccc(C(=O)NCc4ccccc4)cc3)c(=O)c2cc1OC | inconclusive [inhibitor, partial curve] | –
33 | Cc1ccc(Cl)c(OCC(=O)NC2CCN(Cc3ccccc3)CC2)c1 | inconclusive [inhibitor, partial curve] | –
34 | NNC(=O)c1cc(-c2ccc(O)cc2)nc2ccc(Br)cc12 | inconclusive [inhibitor, partial curve] | –
35 | Cc1ccc(/C=C/C(=O)N2CCN(S(=O)(=O)c3c(C)c(C)cc(C)c3C)CC2)o1 | active: 14.6 µM | –
36 | CCN(Cc1ccncc1)C(=O)c1cccc(S(=O)(=O)N2CCOCC2)c1 | – | inactive: -1.97%
37 | C/C(=N/NC(=S)Nc1cccc(C)c1)c1cccc([N+](=O)[O-])c1 | active: 13 µM | –
38 | CCCNC(=O)C1CCC(Cn2c(=O)c3sccc3n(Cc3ccccc3C)c2=O)CC1 (stereo not given) | – | inactive: -23.4%
39 | COc1ccc(Cl)cc1-n1nnc(-c2nc(-c3ccc4c(c3)OCO4)no2)c1C | – | inactive: -8.23%
40 | COc1ccc(NC(=O)CSc2nc3nc(C)c(Cc4ccc(C)cc4)c(C)n3n2)cc1OC | inconclusive [inhibitor, single point] | –
41 | CCOc1ccccc1N(C(=O)c1snc(C(N)=O)c1N)C(C(=O)NC1CCCC1)c1cccs1 (stereo not given) | inconclusive [inhibitor, single point] | –
42 | Cc1nc2cnc(N3CCN(C)CC3)nc2n(C2CC2)c1=O | inconclusive [inhibitor, single point] | –
43 | Cc1ccn2c(Cc3ccccc3)c(-c3ccccc3)nc2c1 | active: 18.4 µM | –
44 | COc1ccccc1NC(=O)C(=O)c1cc(C)n(-c2ccccc2F)c1C | inconclusive [inhibitor, single point] | –
45 | O=c1c2c(nc3cc(-c4cccc(F)c4)[nH]n13)CCC2 | inconclusive [inhibitor, single point] | –
